From PubChem BioAssay AID2546 (National Center for Advancing Translational Sciences (NCATS), 2010)
In all, about 310,000 compounds went through this assay and about 11,000 (3.5%) were called active. The shares of active, inactive and inconclusive entries below differ from those in the screen. Calls follow the shape of the dose curve; as a rule, active = well fitted inhibition curve with a large enough effect; inconclusive = small, poorly fitted or top-dose-only effect, or effect the other way; inactive = flat fitted curve, though single readings scatter. Potencies of inconclusive entries are left out as doubtful fits.

assay: VP16 counterscreen qHTS for inhibitors of ROR gamma transcriptional activity; conditions: Drosophila S2 Gal4-VP16 UAS-luciferase, luminescence, 20 h; series mostly up to 53.6 µM;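 also: Gal4-VP16 expression switched on by copper sulfate through the metallothionein promoter; nearly all actives have a fitted effect of over 50% in size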
Potency is read from the fitted curve at half-maximal effect; tags tell the direction and shape of the fitted curve.

Compound	Potency
Nc1ccccc1C#CC(=O)c1ccccc1	active: 7.08 µM
Cc1cc(C)n(CCNC(=O)c2cc(COc3ccc4ncccc4c3)on2)n1	inconclusive [inhibitor, single point]
CCCCn1c(CNC(=O)c2cccs2)nc2ccccc21	inconclusive [inhibitor, single point]
Cc1cccc(Nc2c3c(nc4ccccc24)CCC3)c1	inconclusive [inhibitor, single point]
CC(=C\c1ccccc1)/C=C1/SC(=S)N(CCCC(=O)O)C1=O	active: 0.631 µM
Cc1ccc[n+](C(C)C(=O)c2ccc(-c3ccccc3)cc2)c1 (stereo unspecified)	inconclusive [inhibitor, single point]
NC(=S)NNc1cc(Cl)cc(Cl)c1	active: 3.98 µM
COc1ccc(O)c(/C=N/NC(=O)CCC(=O)Nc2cccc(C)c2)c1	inconclusive [inhibitor, single point]
O=C(N/N=C\c1cc(Cl)ccc1O)c1ccc(S(=O)(=O)N2CCCCC2)cc1	active: 3.55 µM
O=C(NCc1cccnc1)NC1(C(F)(F)F)Oc2ccc(Cl)cc2O1 (stereo unspecified)	inconclusive [inhibitor, single point]
CCOC(=O)C1CCN(S(=O)(=O)c2c(Cl)ccc3nonc23)CC1	active: 2.82 µM
CCN(CC)c1ccc(-c2n[nH]c(=S)n2-c2ccccc2)cc1	inactive
CCNc1nc(NC(C)(C)C)nc(N2CCCC2)n1	inconclusive [inhibitor, single point]
CCOC(=O)N1CCC(N2CC34C=CC(O3)C(C(=O)Nc3ccc(C)cc3)C4C2=O)CC1 (stereo unspecified)	inconclusive [inhibitor, single point]
Cc1ccc(-c2noc(CCC(=O)NCCCN3CCN(c4ccc(F)cc4)CC3)n2)cc1	inconclusive [inhibitor, single point]
O=C(NC12CC3CC(CC(C3)C1)C2)C1CC(=O)N(c2ccc(Br)cc2)C1 (stereo unspecified)	inactive
COc1ccc(S(=O)(=O)N2CCCC(C(=O)Nc3cccnc3)C2)cc1Cl (stereo unspecified)	inconclusive [inhibitor, single point]
Cc1nnc(NC(=O)CCCN2C(=O)c3ccccc3C2=O)s1	inactive
Cc1cc(C)n(CC(=O)N/N=C/c2cccc([N+](=O)[O-])c2)n1	inactive
COc1cc(NC(=O)c2cccc(F)c2)ccc1NC(=O)c1cc2ccccc2o1	inconclusive [inhibitor, single point]
CC1CC(C)CN(c2ncnc3c2cnn3-c2ccc(Cl)cc2)C1 (stereo unspecified)	inconclusive [inhibitor, single point]
